Article PMC4336329 (PLoS ONE, 2015)
About 14,000 (4.5%) of roughly 310,000 compounds showed an effect of 50% or more. The effect is printed as a negative number. The list shows a part of the results.

molecular target: human ether-à-go-go-related gene (hERG) potassium channel (human, UniProt Q12809); assay: primary screen, population patch clamp on CHO cells stably expressing hERG
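Further: peak tail current of the secondary pulse compared with the same well before compound.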

Sequence of human ether-à-go-go-related gene (hERG) potassium channel (Q12809 whole entry, looked up): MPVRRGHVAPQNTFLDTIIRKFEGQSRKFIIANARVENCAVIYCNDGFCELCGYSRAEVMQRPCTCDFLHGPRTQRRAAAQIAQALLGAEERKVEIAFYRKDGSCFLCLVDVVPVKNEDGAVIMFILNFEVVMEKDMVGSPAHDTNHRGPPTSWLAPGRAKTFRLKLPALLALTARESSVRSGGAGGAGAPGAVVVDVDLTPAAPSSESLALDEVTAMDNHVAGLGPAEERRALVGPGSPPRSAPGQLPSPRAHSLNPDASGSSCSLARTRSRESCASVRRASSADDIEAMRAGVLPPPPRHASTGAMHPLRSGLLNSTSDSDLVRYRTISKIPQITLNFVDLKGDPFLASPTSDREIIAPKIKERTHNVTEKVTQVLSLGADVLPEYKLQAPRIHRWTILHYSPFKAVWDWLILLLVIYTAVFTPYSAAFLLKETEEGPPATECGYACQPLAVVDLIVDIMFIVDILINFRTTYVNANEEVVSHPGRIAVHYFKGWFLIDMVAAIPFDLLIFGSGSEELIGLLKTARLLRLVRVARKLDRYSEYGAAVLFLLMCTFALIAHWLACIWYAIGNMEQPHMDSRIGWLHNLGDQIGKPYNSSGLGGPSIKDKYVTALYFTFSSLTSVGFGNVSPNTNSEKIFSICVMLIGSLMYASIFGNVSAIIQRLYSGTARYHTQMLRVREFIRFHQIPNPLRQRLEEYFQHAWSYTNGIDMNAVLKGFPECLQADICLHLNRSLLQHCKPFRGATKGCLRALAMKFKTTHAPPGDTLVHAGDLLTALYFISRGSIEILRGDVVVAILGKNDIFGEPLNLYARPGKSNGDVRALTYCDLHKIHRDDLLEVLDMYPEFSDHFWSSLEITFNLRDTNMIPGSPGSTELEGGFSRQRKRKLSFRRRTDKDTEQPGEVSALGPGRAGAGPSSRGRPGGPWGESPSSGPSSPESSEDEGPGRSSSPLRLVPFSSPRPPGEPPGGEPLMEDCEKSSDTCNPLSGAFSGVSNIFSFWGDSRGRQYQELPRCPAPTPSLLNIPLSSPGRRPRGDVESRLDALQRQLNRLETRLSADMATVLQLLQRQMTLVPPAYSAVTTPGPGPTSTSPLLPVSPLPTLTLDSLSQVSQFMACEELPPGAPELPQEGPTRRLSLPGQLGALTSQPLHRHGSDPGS

SMILES | hERG current change (%, negative = inhibition) at 10uM [%]
COc1ccc(CN2CCC(Oc3ccc(C(=O)N4CCCCC4)cc3)CC2)cc1C | -45.7
COc1ccc(CNC(=O)CCC2N=C3c4ccccc4N=C(SCC(=O)NCC4CCCO4)N3C2=O)cc1 (stereo not shown) | 7.34
O=C(N/N=C/c1cccc(O)c1)c1csc2ccccc12 | 2
CN(C)CCOC(=O)C1(c2ccccc2)CCOCC1.Cl | 2.37
O=C(CC1C(=O)OCC2CCCCN21)Nc1ccccc1C(F)(F)F.O=C(O)C(=O)O (stereo not shown) | 2.1
CC(=O)c1ccc(NC(=O)[C@@]2(CC(=O)O)CC(/C=C/c3ccccc3)=NO2)cc1 | 13.3
COc1cc(NC(=O)c2cc(C)no2)c(OC)cc1Cl | 17.9
Cc1cc(C)c2nc3sc(C(=O)N4CCOCC4)c(N)c3cc2c1 | -17.3
CCCC(NC(=O)Cc1c(C)c2c(cc(C)c3c(C)coc32)oc1=O)C(=O)O (stereo not shown) | 11.8
COc1ccc(C2=NOC(Cn3nc(-c4ccccc4)cc3C(=O)O)C2)cc1 (stereo not shown) | 16.9
Cl.OC(CNCc1ccc(Cl)c(Cl)c1)c1ccccc1 (stereo not shown) | -4.57
O=C(CSc1nnc(Cc2ccccc2)c(=O)[nH]1)Nc1ccccc1 | -33.7
COc1ccc(OC)c(-n2c(Cn3c(-c4ccccn4)nc4ccccc43)n[nH]c2=S)c1 | -27.4
O=C1c2ccccc2C(=O)C1C1=Nc2ccccc2NC(c2ccccc2)C1 (stereo not shown) | 57.2
CC(CN1CCCC1)OC(=O)COc1ccccc1.Cl (stereo not shown) | 4.51
COCCn1c(C)cc(C(=O)CSc2nc3ccccc3c(=O)n2C(C)COC)c1C (stereo not shown) | -8.32
Cc1c(NC(=O)COC(=O)c2ccc(Br)o2)c(=O)n(-c2ccccc2)n1C | 13.8
CCOc1cccc(-c2nnc3sc(COc4ccc(C)cc4)nn23)c1 | 2.31
CCOc1ccc(C(=O)N/N=C/c2cc([N+](=O)[O-])cs2)cc1 | -4.54
Cc1cc(C)c2c(c1)-c1cc(C)nn1C(c1cccnc1)N2 (stereo not shown) | -11.8
Cc1c(Cl)cccc1NC(=S)N1CCN(S(=O)(=O)c2cccs2)CC1 | -3.16
CCCc1cc(=O)n2nc(N3CCC(C(=O)Nc4c(F)c(F)c(F)c(F)c4F)CC3)sc2n1 | -25.2
O=C(CSc1nc2ccccc2c(=O)n1CCCO)NC1CC1 | -13.4
N#C/C(=C1/C(=O)Nc2ccc(Br)cc21)c1ccccn1 | 12.6
CCN1CCN(C(=O)CN(CC)S(=O)(=O)c2ccc3ccccc3c2)CC1 | -10.2
CCN(CC)CCNC(=O)C(=O)Nc1ccc2c(c1)N(S(=O)(=O)c1cccs1)CCC2 | -78.2
COc1cc([N+](=O)[O-])ccc1-c1ccc(/C=N/NC(N)=O)o1 | 15.7
CC(=O)Nc1c([N+](=O)[O-])cc2[nH]c(=O)[nH]c2c1[N+](=O)[O-] | 13

SMILES | hERG current change (%, negative = inhibition) at 10uM [%]
Oc1ccccc1Nc1ccccn1 | 6.88
O=C(c1ccc(CS(=O)(=O)Cc2ccccc2)cc1)N1CCCCC1 | 34
CC1CCN(C(=O)c2ccc(NC(=O)CC3SC(N4CCCC4)=NC3=O)cc2)CC1 (stereo not shown) | -2.48
O=C(NCCCN1CCOCC1)c1onc(CSc2ccncc2)c1C(=O)NCCCN1CCOCC1 | -5.25
CCOC(=O)c1ccc(-n2c(C)nc3ccccc3c2=O)cc1 | -8.6
CCC(CC)C(=O)OCC(=O)Nc1cc(OC)c([N+](=O)[O-])cc1C | -22.4
COC(=O)c1cc(COc2ccc3oc(C)c(C(=O)OC)c3c2)c(C)o1 | -5.02
Cc1ccc(/C=N/NC(=O)c2nnn(-c3nonc3N)c2C(C)C)o1 | -4.22
CCOc1ccccc1C(=O)Nc1ccc(-n2nncc2C(C)(C)C)cc1 | 10.1
CC(=O)N1CCN(Cc2nc3cc(NC(=O)c4ccccc4C)ccc3n2C)CC1 | 10.2
O=c1[nH]c(=O)n(Cc2ccccc2)c(O)c1C=NCCCO | -5.8
O=C(N/C(=C/c1ccccc1)C(=O)N1CCOCC1)c1ccc([N+](=O)[O-])cc1 | -64.2
COc1ccc(C(=O)N(C)C2CCCc3ccccc32)cc1OC1CCN(C(C)C)CC1 (stereo not shown) | -39.6
Cc1cc(C(=O)Nc2sc3c(c2C#N)CCC(C(C)(C)C)C3)no1 (stereo not shown) | -4.6
COc1ccc(S(=O)(=O)N2CC(C)N(S(=O)(=O)c3ccc(OC)cc3)CC2C)cc1 (stereo not shown) | -10.4
CC(C)(C)c1cc(-c2ccco2)c(C#N)c(SCC#N)n1 | 16.7
O=c1cccc(-c2ccc(Br)cc2)o1 | 6.02
COc1ccc(S(=O)(=O)NCC2CCCN(C(=O)CCC(F)(F)F)C2)cc1 (stereo not shown) | 2.06
O=C(Nc1cccc2cccnc12)c1ccccc1Br | 3.72
N#CCNC(=O)C1CC(=O)N(CCc2ccc(F)cc2)C1 (stereo not shown) | 20.9
COc1cc(N/N=C(\C)c2ccc(N)cc2)nc(-c2ccccc2)n1 | -8.74
CCC(C)[C@H](NC(=O)NCc1cccnc1)C(=O)OC (stereo partly shown) | 21.8
Cc1ccc(S(=O)(=O)N2[C@@H](c3ccc(F)cc3)C(C(=O)O)=CC[C@H]2c2ccc(C(C)C)cc2)cc1 | -15.1
CCOc1ccc(NC(=S)NC(=O)c2cccnc2)c([N+](=O)[O-])c1 | 12.2
CCC(C)NS(=O)(=O)c1ccc(OCC(=O)N2CCN(CC)CC2)cc1 (stereo not shown) | -6.96
Cc1nc(N2CCC(C)CC2)c2c(C)c(C(=O)Nc3ccc(C)c(F)c3)sc2n1 | 11.7
CCOC(=O)c1ccc2nc(C)c(CCC(C)=O)c(Cl)c2c1 | -2.83
